Test results: the RNAGym collection of RNA variant scans (doi:10.7554/elife.90254)
Read counts are not given, so values of variants with three or more changes are uncertain.

B1: LINE1-mini (parent)
chain: GGCAGAGCUCAACACAGCGUGGCAAAGUGGCUGUGGCUAGACUGCC

Variants of: B1
Assay: self-cleavage, relative activity (ratio to wild type); higher = more cleavage; in vitro, sequencing; the parent is a self-cleaving ribozyme

Q: With UGCAGAGCUCAACACAACGUGGCAAAGUGGCUGUGGCAGGACUGCC as the variant, how does the self-cleavage read?
A: 0.05

Q: For UGCAGAGCUCAACACAGCCUGGCAAAGUGGCUGUGGCUAGACAGCC, which self-cleavage is on record?
A: 0.01

Q: With UGCAGACCUCAACACAGCGUGGCAAAGUGGCUCUGGCUAAACUUCC as the variant, how does the self-cleavage read?
A: 0.07

Q: With UGCAGAGCUCAACACAGCGUGGCAAAGUCGCUGUGCAUCGACUGCC as the variant, how does the self-cleavage read?
A: 0.01

Q: For UGCAGAGCUCAACACAGCGUGCCAAAGUGGCUGUUGCUAGACUGCC, which self-cleavage is on record?
A: 0.09

Q: For UGCAGAGCUCAACACAGCGUGGCAAAGUAGCUGUGGCUAGAUUGCC, which self-cleavage is on record?
A: 0.36

Q: For UGCAGAACUCAACACAGCGUUGCAAAGUGGCUGUGCCUAGACUGCC, which self-cleavage is on record?
A: 0.02

Q: For UGCAGAGCUCAACACAUCGUGGCAAAGUGGCAGUGGCUAGACUGCC, which self-cleavage is on record?
A: 0.02

Q: Which self-cleavage does the source give for UGCAGAGCUCAACACAGCUUGGCAAAGAGGCUGUGGCUACACUGCC here?
A: 0.01

Q: With UGCAGAGCUCAACACAGCGUGACAAUGUGGCUGUGGCUAAACUGCC as the variant, how does the self-cleavage read?
A: 0.02

Q: With UGCAGAACUCAAUACAACGUGGCAAAGUGGCUGUGGAUAGACUUCC as the variant, how does the self-cleavage read?
A: 0.19

Q: Which self-cleavage does the source give for UGCAGAGCUCAACACAGCGUAGCCAAGUGGAUGUGGCUAGACUGCC here?
A: 0.17

Q: With UGCAGAGCUCAACACAGCGUGGCAAAGUUGCUGUGGCUAGACUACC as the variant, how does the self-cleavage read?
A: 0.3

Q: For UGCAGAUCUCAACACAGCGUGGCGAAGUGGCUGUGGCUAGACUGCC, which self-cleavage is on record?
A: 0

Q: Which self-cleavage does the source give for UGCAGAUCUCAACACAGCGUGGCUAAGUGGCUGUGGCUAGACUGCC here?
A: 0.01

Q: With UGCAGACCUCAACACAGCGUGGCAAAGUGGCUAUGGCUAGACUGCC as the variant, how does the self-cleavage read?
A: 0.05

Q: For UGCAGAGCUCAACACAACGUGGCUAAGUGUCUAUGGCUAGACUGCC, which self-cleavage is on record?
A: 0.05

Q: Which self-cleavage does the source give for UGCAGAGCUCAACACAGCGUUGGAAAGUGGCUGUGGCCAGCCUGCC here?
A: 0.02

Q: For UGCAGACCUCAACACAUCGUGGCAUAGUGGCCGUGACUAGUCUGCC, which self-cleavage is on record?
A: 0.02

Q: With UGCAGACCUCAACACAUCGUGGCAAAGUGGCUGUGGCUAGACUGCC as the variant, how does the self-cleavage read?
A: 0.01

Q: With UGCAGAGCUCAACACAGCAUGGCAAAGUGGCUAUGGCUAUACUGCC as the variant, how does the self-cleavage read?
A: 0.05

Q: With UGCAGAGCUCAACACAGCCUGGAAAAGUGGCUGUGGCUAGAUUGCC as the variant, how does the self-cleavage read?
A: 0.03

Q: With UGCAGAACUCAACACAGUGUGGCAAAGUGGCUAUGUCUAGACCGCC as the variant, how does the self-cleavage read?
A: 0.04

Q: Which self-cleavage does the source give for UGCAGAGCUCAACACAGCGUGCCAAAGUGGCUGUGACUUGACUGCC here?
A: 0.03

Q: Which self-cleavage does the source give for UGCAGAACUCAACAAAGCCUGGCAAAGUGGCUAUGGCUAGACUGCC here?
A: 0.05

Q: For UGCAGAGCUCAACACAGCGUAGCAAAGUGUCUGAGGCUAGACUGCC, which self-cleavage is on record?
A: 0.02

Q: Which self-cleavage does the source give for UGCAGAACUCAACACACCGUGGCAAAGUGGCUGUGGCUAGACUGCC here?
A: 0.03

Q: For UGCAGAGCUCAACACAGCGUGGCAAAGUUGCUGUGGCUAGACGGCC, which self-cleavage is on record?
A: 0.06

Q: With UGCAGACCUAAACGGAGCGUGACAAAGUGGCUGUGGCUAGACUGCC as the variant, how does the self-cleavage read?
A: 0.03

Q: For UGCAGAGCUCAACACAACAUGACAAAGUGGCUCUGGCGAGACUGCC, which self-cleavage is on record?
A: 0.01

Q: For UGCAGACCUCAACACAGCGUGGAAAAGUGUCUGUGGAUAGACUGCC, which self-cleavage is on record?
A: 0.01

Q: With UGCAGAGCUCAACACAGCAUGGCAUAGUGGCUGUGGCUAGACUGAC as the variant, how does the self-cleavage read?
A: 0.37

Q: Which self-cleavage does the source give for UGCAGAGCUCAACACAACGUGGCAAUGUGGCUGUGGCCAGACGGCC here?
A: 0

Q: With UGCAGAGCUCAACACAUCGUGGCAAAGUUGCUGUGGCUAGACUGCC as the variant, how does the self-cleavage read?
A: 1.08

Q: With UGCAGAGCUCAACACAUCGUGGCAAAGUGGCUGUGGCUAGAUUGCC as the variant, how does the self-cleavage read?
A: 0.09

Q: Which self-cleavage does the source give for UGCAGAGCUCAACACAACGUGGCAAAGUGGCCGUGGCUAGACUGCC here?
A: 0.02

Q: For UGCAGACUUCAACACAGCGUGGUAAAGUGGCUGUGGCUAGACUGCC, which self-cleavage is on record?
A: 0.02

Q: Which self-cleavage does the source give for UGCAGAGCUCAACACAGCGUGGCAAAGUUGCUGUAGCUAGACUGCC here?
A: 0.04

Q: With UGCAGAGCUCAACACAGCGUGGCAAAGUUGCUGUGGGUAGACUGCC as the variant, how does the self-cleavage read?
A: 0.08

Q: For UGCAGAGCUCAACACAGCCUGGCAAAGUGGCUGUGACUAGACUGCC, which self-cleavage is on record?
A: 0.01

Q: For UGCAGAGCUCAACACAGCGUGGCAAACUCACUGUGGCUAGACUGCC, which self-cleavage is on record?
A: 0.93

Q: With UGCAGAGCUCAACACAGCGUUGCAUAGUGGCUGUGGCUUGACUGCU as the variant, how does the self-cleavage read?
A: 0.25

Q: For UGCAGAGCUCAACACAGCAUGGCAAAGUGGCUGUGGUUAGACUGCC, which self-cleavage is on record?
A: 0

Q: Which self-cleavage does the source give for UGCAGAGCUCAACACAGCGUGGCAAAGUGAUUGUGGCUAGACUGCC here?
A: 0.03

Q: With UGCAGAGCUCAACACAGCGUGGCAAAGUGACCGUGGCUAGACUGUA as the variant, how does the self-cleavage read?
A: 0.07

Q: For UGCAGAGCUCAACACACCGUGGCAAAGUGGCUGUGGCUAGCAUGCC, which self-cleavage is on record?
A: 0.02

Q: With UGCAGAGCUCAACACAGCGUGCCAAAGUGGCUGUGGCUAGACAGCC as the variant, how does the self-cleavage read?
A: 0.01

Q: With UGCAGAGCUCAACACAGCAUGGCAAAGUGGCUGUAGCUAGCCUACC as the variant, how does the self-cleavage read?
A: 0.02

Q: With UGCAGAGCUCAACACAGCGUCGCAAAGUGGCUAUGGCUAGACUGCC as the variant, how does the self-cleavage read?
A: 0.06

Q: With UGCAGAUCUCAACAAAGCGUGGCAAAGUGGCUGUGGCUAGACUGCC as the variant, how does the self-cleavage read?
A: 0.07

Q: For UGCAGAGCUCAACACAACGUUGUAAAGUGGCUGUGGCUAGACUGCC, which self-cleavage is on record?
A: 0.02

Q: For UGCAGAGCUCAACACAGCGUUGCAAAGUGGCUGUGGCCAGACUGUC, which self-cleavage is on record?
A: 0.17

Q: For UGCAGAGCUCAACACAGCGUGGCAAAGUCGCUCUGGCUAGACUGCC, which self-cleavage is on record?
A: 0.01

Q: Which self-cleavage does the source give for UGCAGAGCUCAACACAGCCUGGCAAAGUGGCUGUGGCUGGACAGCC here?
A: 0.02

Q: With UGCAGAGCUCAACACAGCCUGGCAAAGUGGCUGUGGCUAUACUGCC as the variant, how does the self-cleavage read?
A: 0.02

Q: With UGCAGACCUCAACACAACGUGUCAAAGUGGAUGUGGCUAGACUGCC as the variant, how does the self-cleavage read?
A: 0.04
